# ± gives the standard deviation of the averaged measurements. The list shows a part of the results.
# Tested on: PfAP2-I AP2 domain 3 (GST-tagged)
# Assay: gcPBM binding intensity (ln(normalized median fluorescence intensity)); higher = stronger DNA binding
# In short: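 For binding intensity, the highest Masliner-normalised natural-log median intensity across replicate spots of either probe orientation was taken. Protein bound to the array was stained with Alexa488 anti-GST antibody and scanned at 488 nm. The protein, GST-tagged P. falciparum DNA-binding domains from E. coli at about 25 μg on average, had been applied for 1 h to an Agilent 4 × 180k array of primer-extended double-stranded 36-bp intergenic genomic probes and negative controls.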
row,Sequence,gcPBM binding intensity (ln)
1,TTTTTTATGCTAACTTCTTTTTCCTTATAAAATTGG [TGCATGCA_negctrl_site598],7.81 ± 0.76
2,TGTAATTGTTTAAAGGGTACATATATCAGATGTCTT [XGTACX_site5877],7.62 ± 0.54
3,TTTTGTTTTTGTAGAGTGCATAAAGAAGATATGTAT,11.1 ± 0.86
4,TGGAAACAATGACACACACACAAAAAAAAAAAAAAA [CACACA_site7494],7.97 ± 0.56
5,GTAGGGGAAAAAAAAACACACAAAAAACAACAGATC [CACACA_site1187],8.26 ± 0.67
6,TTATCTCTACAAAGTGCACACACGTAAAAACATATA [CACACA_site3957],10.1 ± 0.34
7,ATAATAATATTTCTATGTACTTATTTTATGTATTAG [XGTACX_site1747],7.79 ± 0.25
8,AAAAATTAAAATATAACTAATTAATTTGTATTCATT [CACACA_negctrl_site1633],7.24 ± 0.52
9,TATAAATACTTAGAAACACACAAAAATATTTTATAA [CACACA_site7259],7.55 ± 0.67
10,CATTATGTTGTAAATACACACATACAGATACATACA [CACACA_site4565],7.88 ± 0.35
11,TAAAGGCAAACAAACACACACACATAAATACAGATA [CACACA_site5204],7.85 ± 0.37
12,ATATGCGTTTGCAAATGTACATATTATTTATATATA [XGTACX_site7128],7.96 ± 0.42
13,TTTTTTGGTTTTCATGCACACAATTTATAAATCTAT [CACACA_site3106],9.12 ± 0.4
14,ATAATTCTTTTACTGTGTACATATTATCACTTATTT [XGTACX_site2456],8.16 ± 0.73
15,ATATAATGGACCATAGTGCATAAAAATAACAAAAAA [GTGCAC_site9558],10.71 ± 0.092
16,TTTTTATATTTTATAGTGCAAAAACTTACATAAAAT,10.2 ± 0.39
17,TATTTTTTTTCTTTATTTATAACGCTCAATATATTC [GTGCAC_negctrl_site265],7.86 ± 0.54
18,TGGAAATATATATATATATATACATATATATATAGC [XGTACX_negctrl_site107],7.89 ± 0.43
19,ATTTTATAACATTCATGTACACATTTCATTTATTTG [XGTACX_site3028],7.91 ± 0.65
20,CATATAAATATATATACACACACACCGTAATACATA [CACACA_site9158],7.89 ± 0.42
21,TTTTAATATTTTAAGAGTACAGAAATATATAATATG [XGTACX_site4955],8.01 ± 0.4
22,AGAGACACTTTTTATTGTACAAGAGGAGGTTACCTT [XGTACX_site8768],7.82 ± 0.6

row,Sequence,gcPBM binding intensity (ln)
1,TACGAAAAAAAAAAAAAAAAAAAAAAACACAAAAAA [CACACA_negctrl_site1643],7.43 ± 0.64
2,AATACCATAATCAATGCACACATAACAAAATATTAT [CACACA_site8873],9.72 ± 0.29
3,ACAGTATCAATATGGATAAAAATGTCCATATGCCTG [TGCATGCA_negctrl_site482],7.19 ± 0.55
4,TATATAACATATAACACACATACTTAGTATTACATA [CACACA_site3099],7.72 ± 0.32
5,TTATATATACCTAAGACACACACATATATATATATA [CACACA_site8153],9.28 ± 0.27
6,ATTAAATATGTCAAGTGTACAAAATGTAAAAAAAAA [XGTACX_site4119],8.05 ± 0.61
7,TAAATATATATATACACACACACCAAAGCAATAGAT [CACACA_site2940],8.38 ± 0.52
8,GCCATTGTACCATCCACACACATATAAATATGTATA [CACACA_site7303],8.58 ± 0.4
9,TGTTAATAGAAATACGTGCACACTAAAGGGAAAACA [CACACA_site1485],10.4 ± 0.2
10,TATGAAGAAAAGAATTGTACGATGTTTATTTTGTAT [XGTACX_site8614],7.68 ± 0.4
11,TTGTTATCTACCTGTAGTACATATATTATGTAATAT [XGTACX_site735],7.83 ± 0.45
12,ATATTATATATATACACACACACATGCATGCACCTA [CACACA_site106],9.88 ± 0.16
13,TTTTTTAAATATATGGTGCATAGAAAGATATTATAC [GTGCAC_site9984],10.8 ± 0.46
14,ATGTGTTAAAAATGCACACAAAAAAATATACATATA [CACACA_site295],8.62 ± 0.11
15,ACATGTGAACATTCAATGCACACGATGTAATTATAC [CACACA_site14],9.33 ± 0.17
16,AATTAAATTCGGTACTGTACATTTCAAAAATATACG [XGTACX_site48],7.63 ± 0.49
17,CTTAAATTTTACTGAAGTACAAAATCGGTTCAATGA [XGTACX_site3292],7.42 ± 0.39
18,TATACATATTTTTTTTGTACATATATAATATATATA [XGTACX_site2399],7.98 ± 0.59
19,GGGAAAAAAAAAAGCACACATACGTAAATATATAAC [CACACA_site226],8.19 ± 0.61
20,CAATTATATAATTGAAGTACTAGGAAAGATATATAT [XGTACX_site5459],8.12 ± 0.59
21,TAAAAAAATATTACATGTACATAAAATATATATATA [XGTACX_site4633],9.06 ± 0.15
22,TTTAAAAAAAGCAGTACATGCAAAATAATAACAAGC [TGCATGCA_site392],8.97 ± 0.4

row,Sequence,gcPBM binding intensity (ln)
1,AAAGAATTTGCATATACACACAAAAAAATATATACA [CACACA_site386],7.89 ± 0.32
2,GTGTAGATATTGAAATGTACTCTCCATATAAAATAA [XGTACX_site4713],7.67 ± 0.49
3,ATATATATATATATATGTACTTATTTATTTATATTA [XGTACX_site4646],9.54 ± 0.61
4,TTACGATACTTTAGGTGTACACAAATATACATGAAT [XGTACX_site4322],8.48 ± 0.59
5,TATAAATATAAATATACACACATATATATATATATA [CACACA_site1678],9.19 ± 0.68
6,TTGCATTAATTTATGTGTACATATAAATTTTTATTT [XGTACX_site3060],8.21 ± 0.15
7,CTTATAGGTCATTTCCTTGACCCCCTTTGTTGTACT [CACACA_negctrl_site551],7.98 ± 0.27
8,ATCAGTCGGCAGGACAGTACACAGTAGCCAGAAAAT [XGTACX_site2550],7.98 ± 0.76
9,GAAAAATTAAAACCTACACACACATTTAAAAAAAAA [CACACA_site9005],7.71 ± 0.67
10,ATAAATACATATGTGTGTACACATTATATATATATA [XGTACX_site1486],9.03 ± 0.67
11,ATATATATATAATCATCACACATGCAGCCCTGATGA [CACACA_site5500],9.015 ± 0.021
12,TATATATTACATACATGTACCCAAAAAAAAAAAAAA [XGTACX_site1168],8.21 ± 0.57
13,GAATGAATACGTTTTACACACTTGAATCTAATTTCA [CACACA_site6593],7.62 ± 0.74
14,ATTCTACTTTTATTTATTTATTTGTTTATATATATA [XGTACX_negctrl_site609],8.39 ± 0.33
15,TTTTTTATTCATGTAACACACATTTAATTATGAATT [CACACA_site2706],7.98 ± 0.58
16,ATTTGTTCCTTGGGAGTTTACTTTTTTTTAATTTTA [CACACA_negctrl_site638],7.86 ± 0.7
17,TATAAAAATATATATATATATATATATATAATATGT [TGCATGCA_negctrl_site85],8.09 ± 0.28
18,TTAAAAAAAAAACACACACACATACCCATATATATA [CACACA_site5768],8.19 ± 0.74
19,TTCTTTTTAATTAATACACACACACCCATATATATA [CACACA_site8719],8.43 ± 0.51
20,AAAAAATTAGATTATGCACACACACTAATAAATAAT [CACACA_site8604],9.89 ± 0.47
21,AACAAAATTGAAGGAACACACATACATATTTATATA [CACACA_site6227],7.42 ± 0.58
22,TTTATTTAAGAAAAATGTACAGGTTCATTTCATAAT [XGTACX_site27],7.39 ± 0.4

row,Sequence,gcPBM binding intensity (ln)
1,CATATAAATACATGCACACAAAAATATCAATACATT [CACACA_site2392],8.26 ± 0.37
2,GGTCTAACAACATGCGCACACACATGAATATTCATA [CACACA_site1539],8.81 ± 0.49
3,TAAGTATAAAAAAATAGTACAATTATGAAATATCGT [XGTACX_site2529],8.13 ± 0.5
4,TTTTTTTTTTTTTTATGTACACATCTAAAAAAAAGG [XGTACX_site2067],8.19 ± 0.38
5,GCCCCCTAAAAAATTACACACGAAAAAAATGAATTT [CACACA_site9128],9.4 ± 0.22
6,TTTAACAAGTTAAACACACATACATATATACATATA [CACACA_site2536],7.56 ± 0.44
7,AATGTATATATATATATATATATATATATTTATTTA [CACACA_negctrl_site113],7.89 ± 0.2
8,AAGAAAATAGAAAATACACACAGCAAACAGAGGAAT [CACACA_site3785],7.98 ± 0.93
9,ATATATATATATTTATGTACATATATTTTTTTTTTT [XGTACX_site8558],9.175 ± 0.049
10,AAGCCTTAAAAGGAAAGTACGTATATATATATATAT [XGTACX_site8559],9.39 ± 0.16
11,ATATTTAATTAAAAGAGTACTTAAATAAAATAAATG [XGTACX_site2149],7.7 ± 0.42
12,ATGAAACATGTATATTGTACTCTGGATCAATTTAAT [XGTACX_site6413],7.52 ± 0.58
13,AATAAATAAATACATCTCAGTATATAAACAAACAAA [CACACA_negctrl_site1604],7.7 ± 0.34
14,AAATTTATTATATATACATGCAATCATAAATAATGT [TGCATGCA_site539],7.68 ± 0.48
15,GGATATAACAAACACACACACACATATATATATATT [CACACA_site4141],7.96 ± 0.46
16,AATACATATAATACAACACACAAGTAATATAAACCT [CACACA_site3597],7.81 ± 0.71
17,TTTAAATGAAAAAAAGGTACACAATATTATTCTTAT [XGTACX_site8612],7.71 ± 0.54
18,AAGAAAAAAAAAAATATATATACATATATATATATA [TGCATGCA_negctrl_site485],9.39 ± 0.18
19,AATACTTATTATGAAACACACACCAAAACTACATAA [CACACA_site270],8.12 ± 0.57
20,AAAAAAAAAAAACACACACACACACTAGTATATAAA [CACACA_site4783],7.84 ± 0.37
21,TATACATACACATACACACATACACCCATACACATA [CACACA_site1746],8.16 ± 0.23
22,TTCTTCTAATCCTTTTATCTCATTAAAAAAATATAA [CACACA_negctrl_site12],7.8 ± 0.4
